Data reported in paper PMC4336329 (PLoS ONE, 2015).
Out of some 310,000 compounds screened, about 2,200 (0.71%) showed an effect of 50% or more. The effect is printed as a negative number. This is one part of the list.

These compounds were tested against human ether-à-go-go-related gene (hERG) potassium channel (human, UniProt Q12809) (assay: primary screen, population patch clamp on CHO cells stably expressing hERG).
Sequence of human ether-à-go-go-related gene (hERG) potassium channel (Q12809 whole entry, looked up): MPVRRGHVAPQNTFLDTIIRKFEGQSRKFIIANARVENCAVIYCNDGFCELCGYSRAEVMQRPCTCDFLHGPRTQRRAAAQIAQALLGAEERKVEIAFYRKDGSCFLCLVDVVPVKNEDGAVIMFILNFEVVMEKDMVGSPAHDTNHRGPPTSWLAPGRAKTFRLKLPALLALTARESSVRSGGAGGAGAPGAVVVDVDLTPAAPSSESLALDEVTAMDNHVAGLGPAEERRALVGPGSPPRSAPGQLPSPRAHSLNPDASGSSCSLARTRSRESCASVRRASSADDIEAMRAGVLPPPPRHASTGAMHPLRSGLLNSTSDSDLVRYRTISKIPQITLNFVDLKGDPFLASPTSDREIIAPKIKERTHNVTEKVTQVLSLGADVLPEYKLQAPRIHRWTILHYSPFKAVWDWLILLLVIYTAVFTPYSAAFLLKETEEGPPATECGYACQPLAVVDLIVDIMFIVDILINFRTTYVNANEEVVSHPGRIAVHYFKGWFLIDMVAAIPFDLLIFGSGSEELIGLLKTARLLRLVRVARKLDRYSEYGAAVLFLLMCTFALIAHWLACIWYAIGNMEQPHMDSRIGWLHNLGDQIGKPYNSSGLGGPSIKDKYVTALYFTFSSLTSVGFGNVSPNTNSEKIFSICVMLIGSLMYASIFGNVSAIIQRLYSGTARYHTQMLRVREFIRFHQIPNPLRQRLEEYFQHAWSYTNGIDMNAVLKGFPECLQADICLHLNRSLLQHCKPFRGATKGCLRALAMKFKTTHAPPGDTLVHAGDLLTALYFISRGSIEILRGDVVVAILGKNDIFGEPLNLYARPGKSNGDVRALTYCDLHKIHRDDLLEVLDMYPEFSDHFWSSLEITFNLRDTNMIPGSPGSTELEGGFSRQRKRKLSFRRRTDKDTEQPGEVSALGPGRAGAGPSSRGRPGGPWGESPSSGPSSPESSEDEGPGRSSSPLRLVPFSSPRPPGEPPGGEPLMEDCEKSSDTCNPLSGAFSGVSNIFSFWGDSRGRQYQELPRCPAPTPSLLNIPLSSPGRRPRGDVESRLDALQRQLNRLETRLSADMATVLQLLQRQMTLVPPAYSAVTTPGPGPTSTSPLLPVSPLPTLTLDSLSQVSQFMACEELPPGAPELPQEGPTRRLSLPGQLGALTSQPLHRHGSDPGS

Point of comparison: CCN(CC)CC#CC(O)(c1ccccc1)c1ccccc1, “hERG current change (%, negative = inhibition) at 1uM” value -6.83%. Against it:
- Cc1ccc(CSc2nc3ncccc3[nH]2)cc1 — higher, 14.3%
- COc1ccccc1OCC(=O)Nc1cc(S(=O)(=O)N2CCCCC2)ccc1N1CCCCC1 — higher, 4.32%
- COc1cc(CNCc2ccc(OC)cc2OC)cc(OC)c1.O=C(O)C(=O)O — higher, 3.21%
- Oc1ccc(N2CCN(Cc3cc4c(cc3Br)OCCO4)CC2)cc1 — higher, -1.18%
- CC(NC(=O)c1ccco1)C(=O)OCC(=O)c1ccc(Cl)s1 (stereo not shown) — higher, 19.3%
- COc1ccccc1NC(=O)N1CCCC1C(=O)NCc1ccc(F)cc1 (stereo not shown) — higher, 9.38%
- COc1ccc2c(c1)c(CC(=O)Nc1ccccc1OC)c(C)n2C(=O)c1ccc(Cl)cc1 — higher, 3.97%
- C/C(CCc1ccc2c(c1)OCO2)=N\N=C(/N)SC1CC(=O)N(c2ccc(Cl)cc2)C1=O (stereo not shown) — higher, 14.7%
- COCCCNC(=S)NNC(=S)NCCCOC — higher, 12.9%
- O=C(c1ccc(Cl)c(S(=O)(=O)N2CCOCC2)c1)N1CCCCCC1 — higher, 10.4%
- Cc1cc(C(=O)N/N=C/c2ccc3c(c2)OCO3)c(C)n1-c1ccc(F)cc1 — higher, 10.6%
- CC1Sc2ccc(Cl)cc2-c2nc(N)ncc21 (stereo not shown) — higher, 9.09%
- COc1ccc(Cc2c(O)nc(SCC(=O)c3ccc(OC)cc3)[nH]c2=O)cc1 — higher, 11.3%
- CCCC(C(=O)NCc1ccco1)N(C(=O)CNS(=O)(=O)c1ccc(Cl)cc1)C1CCCC1 (stereo not shown) — higher, 0.955%
- COc1ccc2cc(CN(Cc3ccco3)Cc3nnnn3C3CCCCC3)c(=O)[nH]c2c1 — higher, 3.65%
- CCOCCn1c(SC(C)C(C)=O)nc2c1c(=O)[nH]c(=O)n2C (stereo not shown) — higher, -0.132%
- CC(=O)C1(c2ccccc2)CCNCC1 — higher, 12.2%
- O=C(Cc1ccc(Br)cc1)N1CCCCCC1 — higher, 12.4%
- CC(C)(C)NC(=O)CSc1nc2ccccc2n1-c1ccccc1 — higher, 3.25%
- COc1cc(/C=N/NC2=NS(=O)(=O)c3ccccc32)cc(OC)c1OC — higher, 10.2%
- CCCCn1nc(NC(=O)COC)c2cc3cc(OC)ccc3nc21 — higher, -5.56%
- CCc1cc2c(NC(Cc3ccccc3)C(=O)O)nc(C)nc2s1 (stereo not shown) — higher, 15.2%
- CC1=C(C(=O)Nc2cc(C)ccn2)C(c2ccc(C)cc2)C2=C(CCCC2=O)N1 (stereo not shown) — lower, -11.1%
- Cl.O=S(=O)(c1ccc(F)cc1)N1CCCNCC1 — higher, 5.24%
- O=C(Cc1ccc([N+](=O)[O-])cc1)Nc1cc(C(F)(F)F)cc(C(F)(F)F)c1 — higher, 14.1%
- CCOC(=O)Cc1csc(NC(=O)c2cccc(OC)c2)n1 — higher, 9.05%
- COCCN(C)C(=O)CC1C(=O)NCCN1CC(c1ccccc1)c1ccccc1 (stereo not shown) — higher, 19.1%
- O=C(N/C(C(=O)N1CCOCC1)=C(\Sc1ncccn1)c1ccccc1)c1ccccc1 — higher, 3.42%
- CN(C)c1ccc(/C=N/NC(=O)c2cc(-c3ccc4c(c3)OCO4)n[nH]2)cc1 — higher, 3.46%
- CCn1c2ccccc2c2cc(N=C3SC(CC(=O)Nc4ccccc4OC)C(=O)N3C)ccc21 (stereo not shown) — higher, 3.89%
- Cc1ccccc1NC(=O)Cn1nc(-c2ccc(Cl)s2)ccc1=O — higher, 15.6%
- Cc1ccc(S(=O)(=O)NCC(=O)N(CC2CCCO2)C(C(=O)NC2CCCC2)C(C)C)cc1 (stereo not shown) — higher, 10.1%
- O=C(Nc1cccc(NC(=O)c2ccco2)c1)c1cnccn1 — higher, -1.07%
- Cc1ccc(C(C(=O)NC2CCCC2)N2CCCCC2)cc1 (stereo not shown) — higher, 13%
- Cl.O=C([C@@H]1Cc2ccccc2CN1)N1CCN(Cc2ccccc2)CC1 — higher, -0.521%
- CCOc1ccc(NCc2cccn2-c2nnc(N3CCC(C(=O)NCCCN4CC(C)CC(C)C4)CC3)s2)cc1 (stereo not shown) — lower, -26.6%
- Cc1cc(C)c2c(n1)sc1c(-c3ccccc3)c(C#N)c(N)nc12 — higher, -0.899%
- CCCCCCCCCCCCN1[C@@H](CC(=O)O)c2cc(F)ccc2S1(=O)=O — higher, -3.57%
- COc1ccc(OC)c(CN2CCN(CC(=O)Nc3ccccc3C(=O)NC3CC3)CC2)c1 — lower, -87.6%
- Cc1ccc(Cn2nc(C)c(C(=O)NCC(c3cccs3)N3CCOCC3)c2Cl)cc1 (stereo not shown) — higher, 9.19%
- O=C(NC(=Nc1nc2ccccc2o1)NC(=O)c1ccccc1)c1ccccc1 — higher, 4.48%
- CCN1C(=O)[C@H]2[C@@H](c3ccc(C)cc3)N3C(=O)N(c4cccc(Br)c4)C(=O)[C@@]3(CC(C)C)[C@H]2C1=O — higher, 9.09%
- O=c1[nH]c2ccc(S(=O)(=O)N3CCC(Cc4ccccc4)CC3)cc2o1 — higher, 18%
- Fc1cc(Br)ccc1NC(=S)Nc1cccnc1 — higher, 6.8%
- CCCn1nnnc1-c1cc(Cl)cc(Cl)c1 — lower, -10.4%
- COc1ccc(N2CCC(N3CCN(C)C(CCO)C3)CC2)cc1 (stereo not shown) — higher, 13%
- Cc1ccc(/C(O)=C2\C(=O)C(=O)N(C)C2c2ccc(F)cc2)cc1 (stereo not shown) — higher, 14.5%
- O=C(O)C1[C@H]2C(=O)N(Cc3cccs3)C[C@]23C=C[C@H]1O3 (stereo partly shown) — higher, 5.56%
- COc1ccc(Br)cc1CNC(=O)CCNC(=O)Cn1ccc2ccccc2c1=O — higher, -1.56%
- N#Cc1cc(C(=O)c2ccccc2O)cn(-c2ccc(Cl)cc2)c1=O — higher, 7.25%
- COc1ccc(N2CCN(C(=O)Cn3cnc4c3c(=O)n(C)c(=O)n4C)CC2)cc1 — higher, 12.9%
- CCC(=O)N1CCN(c2ccccc2NC(=O)c2cccc(C)c2)CC1 — lower, -9.48%
- C=CCn1c(SC(C)C(=O)Nc2ccc(Cl)cn2)nnc1C1CC1 (stereo not shown) — higher, 4.64%
- COC(=O)c1ccc(OC(=O)CS(=O)c2ccccc2[N+](=O)[O-])cc1 (stereo not shown) — higher, 26.6%
- Cc1ccc(C2=NS(=O)(=O)N(C)C(C(=O)NC3CCCCC3)=C2)cc1 — higher, 10.4%
- Cc1cc(SC#N)cc(C)c1NC(=O)CCl — higher, 11.1%
- Oc1ccc(N=Cc2cc(Br)c(N3CCOCC3)o2)cc1 — higher, 15.3%
- CCOC(=O)CNC(=O)CN1C(=O)CC(c2ccccc2)S(=O)(=O)c2ccccc21 (stereo not shown) — higher, 8.95%
- COC(=O)NCC(c1cccnc1)N1CCOCC1 (stereo not shown) — higher, 14.6%
- CCCN(CCC)CC(O)COc1ccc([N+](=O)[O-])cc1 (stereo not shown) — lower, -81.4%
- CCNc1nc(N)nc(Oc2ccc(OCCOc3ccccc3)nn2)n1 — higher, 8.36%
- Cn1nc(C(F)(F)F)cc1C(=O)Nc1ccc(-c2ccno2)cc1 — higher, 16.1%
- CS(=O)(=O)c1ccc(Cl)c(NC(=O)CSc2n[nH]c(-c3cccs3)n2)c1 — higher, 1.01%
- O=C(CCCOc1ccccc1)Nc1nc2ccccc2[nH]1 — higher, 6%
- C=CCn1c(SCc2cccc3ccccc23)nnc1-c1cccnc1 — higher, 4.97%
- CCCc1cc(=O)[nH]c(SCC(N)=O)n1 — higher, -1.05%
- Cc1cc(C)c(NC(=O)COc2ccc(-n3cnnn3)cc2)c(C)c1 — higher, 6.92%
- CC(C)CCNC(=O)CSc1nnc(-c2ccc(S(=O)(=O)N3CCCC3)cc2)n1C — higher, 25.7%
- Cc1ccc(N(Cc2cc3ccc(C)cc3[nH]c2=O)C(=O)c2ccco2)c(C)c1 — higher, 3.02%
- Cn1c(SCC(=O)N/N=C/c2ccc([N+](=O)[O-])s2)nnc1-c1ccccc1 — higher, -6.56%
- COc1ccc(S(=O)(=O)N2CCOC23CCN(C(=O)c2ccccc2OC)CC3)cc1 — higher, 3.7%
- Cc1cccc(C(C)C)c1NC(=O)COC(=O)c1cccc(S(=O)(=O)N2CCc3ccccc3C2)c1 — higher, 9.87%
- Cc1sc2nc(CSc3ccccc3)nc(NCCN(C)C)c2c1C — lower, -50.1%
- COC(=O)C1=C(C)NC(=O)/C1=C\c1cccs1 — higher, 0.0419%
- O=C(COC(=O)c1cccc(OC(F)F)c1)NC(=O)NC1CCCCC1 — higher, 16.8%
- Cc1ccc(/C=C/C(=O)Nc2ccc(N(C)C)cc2)o1 — higher, 3.4%
- CCN(CC(=O)Nc1ccccc1OC)CC(=O)Nc1sccc1C#N — higher, 5.94%
- CCN1C(=O)c2ccccc2Sc2ccc(C(=O)NC(C)C)cc21 — higher, 12%
- CCC(=O)Nc1nc2nc(-c3ccccc3)cc(=O)n2[nH]1 — higher, 9.51%
- Cc1ccccc1Nc1nc(N)nc(CSc2nnc3sc4ccccc4n23)n1 — higher, 16%
- COC(=O)C1=CN(c2ccc(OC)cc2)C=C(C(=O)OC)C1c1ccc([N+](=O)[O-])cc1 — higher, 16.9%
- COC(=O)NC(C)N1C(=O)C2C3C=CC(C3)C2C1=O (stereo not shown) — higher, 8.19%
- COc1cccc2[nH]c3c(=O)n(CCN(C)C)cnc3c12 — higher, 3.41%
- CC(C(=O)Nc1ccc(C#N)cc1)N(C)CC(=O)Nc1cccc(F)c1 (stereo not shown) — lower, -43.5%
- Cc1cccc(CSc2ccc3nnc(-c4ccccn4)n3n2)c1 — lower, -58.9%
- CN1CCc2c(sc3c2C(=O)NC(c2cccs2)N3)C1 (stereo not shown) — higher, -0.102%
- Cc1ccc2c3c1C(=O)C(=O)N3C(C)(C)CC2C (stereo not shown) — higher, -2.23%
